From PubChem BioAssay AID900 (National Center for Advancing Translational Sciences (NCATS), 2007)
About 20 (0.03%) of roughly 75,000 compounds were called active. The inconclusive results got no clear call from the source; some entries with a clear call stand among them for comparison. Calls come from the whole dose curve; as a rule, active = well fitted inhibition curve with a large enough effect; inconclusive = small, poorly fitted or top-dose-only effect; inactive = flat fitted curve, though single readings scatter. Potencies of inconclusive entries are left out as doubtful fits.

target: Caspase-1 (Homo sapiens) (UniProt P29466); test: qHTS Assay for Allosteric/Competitive Inhibitors of Caspase-1; settings: Caspase-1 enzyme, Ac-WEHD-AFC fluorogenic rate; activity change, negative = inhibition: at 57.5 µM (top of the series) unless noted;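 for activity change, negative = inhibition: plate controls were vehicle for no effect and no substrate for full effect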
From the text: NIH Molecular Libraries Screening Centers Network [MLSCN]
NIH Chemical Genomics Center [NCGC]
PI Name: Dr. James Wells,
Dr. Enrique Perez-Paya, Dr.Janice Williams, Dr. Dennis Wolan, a person
The caspases (Cysteine Aspartyl Protease) comprise a related family of 14 dimeric proteases that are critical mediators of apoptosis (programmed cell death) and inflammation. The caspases represent an important class of drug targets for stroke, ischemia, cancer and inflammatory diseases. […] One goal of this project was to identify compounds that act as allosteric inhibitors via stabilizing the procaspase form of the enzyme. Previous work in Well's laboratory has shown that such allosteric inhibitors can be identified and these act by binding at the dimer interface of enzyme (Hardy, Lam et al., 2004).
The biochemical assay was configured using purified caspase 1 at a high enzyme concentration to promote formation of the homodimers and thus facilitate the identification of allosteric inhibitors. The overall goal was to identify reversible inhibitors with better drug-like properties than the currently available set of aspartyl-containing peptidomimetics that covalently bind the active site. Caspase 1 was assayed using the profluorescent substrate Ac-WEHD-AFC. After initiation of the assay with substrate the plates were rapidly read using an automated robotic system (Kalypsys, Inc.) to maintain consistent timing. A kinetic mode of detection was used where the initial rate was collected (estimated final product formation was ~10%). Compounds were screened as a concentration-titration series that ranged from 57 uM to 0.7 nM. Below is the protocol used for caspase 1.
NCGC Assay Protocol Summary:
Caspase 1 was prepared in buffer (50 mM HEPES pH 7.5, 50 mM KCl, 200 mM NaCl, 10 mM DTT, 0.1% CHAPS) at a concentration of 66.6 nM and 3 uL was dispensed to all wells using black solid Kalypsys 1536-well plates. 20 nL of DMSO containing compounds was added using a pin-tool (Kalypsys Inc.) to columns 5-48. Then 20 nL of DMSO solution from a control plate was added to columns 1-4. Controls were: Column 1, 16 point titration with each concentration in duplicate (1:1 dilutions in DMSO; final starting concentration was 57 uM) of the caspase 1 inhibitor Ac-WEHD-CHO (Alexis Biochemicals); Column 2, a 16 point titration with each concentration in duplicate of the free AFC fluorophore prepared in DMSO (Alexis Biochemicals), final starting was 40 uM; Column 3 neutral (DMSO only) control; Column 4: DMSO alone, to serve as a negative control (no substrate was added). Then 1 uL of 20 uM the substrate Ac-WEHD-AFC (Alexis Biochemicals) prepared in the same buffer was dispensed to all wells except columns 2 and 4 and the plates were immediately transferred (< 1 min) to the Viewlux. The plates were then exposed using 405 nm excitation/520 nm emission filters for 4 sec and read at 20 sec intervals for 3 min. Final enzyme concentration was 50 nM and the final substrate concentration was 5 uM.
Concentration-response curves were fitted to the data calculated from slope of the linear regression of fluorescent intensity versus time (the rate). The concentration-effect curves were then classified based on curve quality (r2), response magnitude and degree of measured activity. […] Inconclusive compounds had appreciable concentration-dependent effects on both the measured rate and the interpolated basal fluorescence intensity at the start of the reaction but where the basal fluorescent intensity was marginal (e.g. < 10-fold). Inconclusive compounds also encompass highly fluorescent compounds (>100-fold increases in fluorescent intensities values relative to controls) where artificial concentration-dependent decreases in the rate occurred at high compound concentrations due to fluorescent interferences.
Keywords: Caspase 1, proteases, profluorescent, MLSMR, MLSCN, NIH Roadmap, qHTS, NCGC
Potency is the fitted concentration of half-maximal effect; tags give direction and shape of the fitted curve or compound fluorescence and quenching.

Structure (SMILES) | Potency | activity change, negative = inhibition
CC(C)(C)c1ccccc1NC(=O)c1cccnc1 | inactive | 
O=C(NC1CCCCCC1)C1C2C=CC3(CN(Cc4cccnc4)C(=O)C13)O2 (stereo not drawn) | inconclusive [inhibitor, single point] | 
O=c1c2c(nc3cc(-c4ccc(F)cc4)[nH]n13)CCCC2 | inactive | 
C=CCSc1nnc2c(n1)OC(c1cccnc1)N(C(C)=O)c1ccccc1-2 (stereo not drawn) | inconclusive [inhibitor, single point] | 
Nc1ccc2c(c1)C(=O)N(CCCC(=O)O)C2=O | inconclusive [inhibitor, partial curve] | 
O=c1[nH]c2cc3c(cc2cc1C(c1nnnn1Cc1ccccc1)N1CCN2CCCC2C1)OCCO3 (stereo not drawn) | inconclusive [inhibitor, partial curve] | 
COc1cc(-c2c(C#N)c(N)nc3c2c(C)nn3-c2ccc(C)c(C)c2)cc(OC)c1OC | inconclusive [inhibitor, single point] | 
CC(C)CN(C(=O)c1ccc(=O)n(C)n1)c1nc2ccccc2s1 | inactive | 
O=C1NC(=S)S/C1=C1\Sc2ccccc2N1CCCS(=O)(=O)O | inconclusive [inhibitor, partial curve] | 
CCOC(=O)c1ccc(CC(=O)c2oc3cc(O)ccc3c2C)o1 | inconclusive [inhibitor, partial curve] | 
COc1ccc(-c2cc(C(F)(F)F)n3nc(C(=O)N4CCOCC4)c(Cl)c3n2)cc1 | inconclusive [inhibitor, partial curve] | 
COc1ncc2nc(-c3ccc(F)cc3)c(=O)n(Cc3ccc(F)cc3)c2n1 | inconclusive [inhibitor, partial curve] | 
O=C(O)c1ccccc1-c1ccc(/C=c2\sc3nc4cc(Br)cnc4n3c2=O)o1 | inconclusive [inhibitor, partial curve] | 
CN=Cc1sc2ccccc2c1O | inconclusive [inhibitor, single point] | 
NC(=O)c1ccccc1N/C=C/C(=O)c1ccco1 | inconclusive [inhibitor, partial curve] | 
O=C(O)[C@H]([C@H]1NCCS1)N1Cc2ccccc2C1 |  | inactive: -1.04% [at 11.5 µM]
CCOC(=O)c1c(C#N)c(SCC(=O)Nc2ccc(OC)cc2)nc2c1CN(CC)CC2 | inconclusive [inhibitor, partial curve] | 
CCn1c(N)c(C(=O)Nc2ccccc2C(=O)OC)sc1=S | inconclusive [inhibitor, single point] | 
